Results taken from patent US7749983B2, “Metabolically stable alkoxyalkyl esters of antiviral or antiproliferative phosphonates, nucleoside phosphonates and nucleoside phosphates” (priority 2006, dated 2010).

Details: Table 5; cell line and method not stated

**Q.** Which CC50 does the source give for “14-methyl-pentadecyloxypropyl cidofovir [Compound 14M-PDP-CDV]” here?
**A.** 38 µM

**Q.** For “17-methyl-octadecyloxyethyl cidofovir [Compound 17M-ODE-CDV]”, which CC50 is on record?
**A.** 7.5 µM

**Q.** With `CC(C)CCCCCCCCCCCCCCOCCOP(=O)(O)CO[C@H](CO)Cn1cnc2c(N)ncnc21` [15M-HDE-HPMPA, 3-(15-methylhexadceyloxy)ethyl (S)-HPMPA] as the compound, how does the CC50 read?
**A.** 43 µM

**Q.** With `CC(C)CCCCCCCCCCCOCCCOP(=O)(O)CO[C@H](CO)Cn1ccc(N)nc1=O` [Compound 12M-TrDP-CDV, 12-methyl-tridecyloxypropyl cidofovir] as the compound, how does the CC50 read?
**A.** 82 µM

**Q.** For `CC(C)CCCCCCCCCCCCOCCCOP(=O)(O)CO[C@H](CO)Cn1ccc(N)nc1=O` [Compound 13M-TDP-CDV, 13-methyl-tetradecyloxypropyl cidofovir], which CC50 is on record?
**A.** 82 µM

**Q.** Which CC50 does the source give for `CC(C)CCCCCCCCCCCCCCOCCCOP(=O)(O)CO[C@H](CO)Cn1ccc(N)nc1=O` [Compound 15M-HDP-CDV, 15-methyl-hexadecyloxypropyl cidofovir] here?
**A.** 18 µM

**Q.** With `CCCCCCCCCCCCCCCCOCCOP(=O)(O)COC(CO)Cn1cnc2c(N)ncnc21` (stereo not shown) [HDE-HPMPA, reference compound] as the compound, how does the CC50 read?
**A.** 2.5 µM
